According to the supplement of paper PMC10600219:
Counter-ions that a name gives are not always drawn. Whole data set: some 2,800 compounds, median “cell viability relative to vehicle” near 1.1, cut for the lowest 2% near 0.19. The list shows a part of the results.

test system: NCI-H2228 parental; test: cell viability relative to vehicle (fraction of vehicle); NCI-H2228 is an ALK-positive lung cancer line and DTP means drug-tolerant persister; higher = less growth inhibition; conditions: 100 nM; treatment time 6 days
Method in brief: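 NCI-H2228 parental cells and drug-tolerant persister cells were plated in 384-well plates; the persisters had been generated with 1000 nM of a targeted drug over 13 days. One day later, the 3114-agent TargetMol anti-cancer compound library was added at 100 nM, with DMSO serving as vehicle. ATP was measured 6 days after that using the CellTiter-Glo 3D Cell Viability Assay. Values are cell viability expressed relative to vehicle-treated cells.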

Question: `Cc1cc(SCc2sc(-c3ccc(C(F)(F)F)cc3)nc2C)ccc1OCC(=O)O` was tested. Which cell viability did it give?
Answer: The cell viability was 0.994.

Question: How did the cell viability turn out when `C[C@@H]1CCCCCCCCCCCCC(=O)C1` [Muscone] was run?
Answer: The cell viability was 1.13.

Question: With `C#C[C@]1(O)CC[C@H]2[C@@H]3CCC4=CC(=O)CC[C@@H]4[C@H]3CC[C@@]21CC` [Levonorgestrel] as the compound, how does the cell viability read?
Answer: The cell viability was 1.17.

Question: For `N#C/C(=C\c1ccc(O)c(O)c1)C(=O)NCc1ccccc1`, which cell viability is on record?
Answer: The cell viability was 0.871.

Question: Which cell viability does the source give for `CCN(CC)CCCCNc1ncc2cc(-c3cc(OC)cc(OC)c3)c(NC(=O)NC(C)(C)C)nc2n1` here?
Answer: Its cell viability is 0.993.

Question: `CC[C@@H](CO)NCCN[C@@H](CC)CO` [Ethambutol dihydrochloride] was tested. Which cell viability did it give?
Answer: Its cell viability is 1.1.

Question: `C/C=C(/C)C(=O)O[C@@H]1[C@H](OC(C)=O)c2c(ccc3ccc(=O)oc23)OC1(C)C` [Praeruptorin A] was tested. Which cell viability did it give?
Answer: The cell viability was 1.15.

Question: Which cell viability does the source give for `CC(C)C[C@H](NC(=O)CNC(=O)c1cc(Cl)ccc1Cl)B1OC(=O)C(CC(=O)O)(CC(=O)O)O1` here?
Answer: Its cell viability is 0.106.

Question: `Cc1cc(OCc2nnc(SC3CCCC3)n2-c2cccnc2)ccc1-c1ccc(S(C)(=O)=O)cc1` was tested. Which cell viability did it give?
Answer: Its cell viability is 0.785.

Question: `CNC(=O)c1ccc(C)c(-n2c(C)cc(OCc3ccc(F)cc3F)c(Br)c2=O)c1` was tested. Which cell viability did it give?
Answer: Its cell viability is 1.1.

Question: `CC(=O)Nc1ccn([C@@H]2O[C@H](CO)[C@@H](O)[C@H]2O)c(=O)n1` [N4-Acetylcytidine] was tested. Which cell viability did it give?
Answer: Its cell viability is 1.06.

Question: Which cell viability does the source give for `CC(C)S(=O)(=O)c1ccc2nccc(Nc3ccc4scnc4c3)c2c1` here?
Answer: The cell viability was 1.08.

Question: For `C=C1CC[C@H]2C(=C)CC[C@H]3C(=C)C(=O)O[C@@H]3[C@@H]12` [Dehydrocostus Lactone], which cell viability is on record?
Answer: Its cell viability is 1.13.

Question: Which cell viability does the source give for `COCCOc1ccc(N2CCN(CCn3ncc4c3nc(N)n3nc(-c5ccco5)nc43)CC2)cc1` [Preladenant] here?
Answer: Its cell viability is 1.02.

Question: With `O=c1c(-c2ccc(O[C@@H]3O[C@H](CO)[C@@H](O)[C@H](O)[C@H]3O)cc2)coc2cc(O)cc(O)c12` [Sophoricoside] as the compound, how does the cell viability read?
Answer: Its cell viability is 0.949.

Question: With `Cc1ccc(-n2nc(C(C)(C)C)cc2NC(=O)Nc2ccc(OCCN3CCOCC3)c3ccccc23)cc1` [Doramapimod] as the compound, how does the cell viability read?
Answer: Its cell viability is 0.986.

Question: With `C=CC(=O)Nc1cccc(Oc2nc(Nc3ccc(N4CCN(C)CC4)cc3)nc3ccsc23)c1` [Olmutinib] as the compound, how does the cell viability read?
Answer: The cell viability was 1.09.

Question: How did the cell viability turn out when `C[C@H](NC(=O)C(=O)Nc1ccccc1C(C)(C)C)C(=O)N[C@@H](CC(=O)O)C(=O)COc1c(F)c(F)cc(F)c1F` [Emricasan] was run?
Answer: Its cell viability is 0.971.

Question: How did the cell viability turn out when `CCc1c(-c2ccc(C(=O)NC)nc2)cnc(N)c1-c1ccc(O)cc1` was run?
Answer: Its cell viability is 1.09.

Question: For `c1ccc(CN(CC2=NCCN2)c2ccccc2)cc1` [Antazoline hydrochloride], which cell viability is on record?
Answer: The cell viability was 1.11.

Question: `CN(C)Cc1ccc(S(=O)(=O)n2ccc(/C=C/C(=O)NO)c2)cc1` [Resminostat hydrochloride] was tested. Which cell viability did it give?
Answer: The cell viability was 1.02.

Question: How did the cell viability turn out when `Nc1ncnc2n[nH]c(Nc3ccc(F)cc3)c12` was run?
Answer: Its cell viability is 0.961.

Question: For `CN(C)CC/C=C1/c2ccccc2COc2ccc(CC(=O)O)cc21` [Olopatadine hydrochloride], which cell viability is on record?
Answer: Its cell viability is 0.889.

Question: For `CCc1cnc(N2CCC(c3nc(COc4ccc(-n5cnnn5)cc4)cs3)CC2)nc1`, which cell viability is on record?
Answer: The cell viability was 0.962.

Question: `NC[C@H](O)c1ccc(O)c(O)c1` [Noradrenaline bitartrate monohydrate] was tested. Which cell viability did it give?
Answer: The cell viability was 1.03.

Question: How did the cell viability turn out when `NC[C@H](O)c1ccc(O)c(O)c1` [Noradrenaline bitartrate] was run?
Answer: The cell viability was 1.16.

Question: With `CCN(CC)CCNC(=O)c1ccc(N)cc1` [Procainamide hydrochloride] as the compound, how does the cell viability read?
Answer: The cell viability was 1.16.

Question: For `O=C(O)c1ccc(-c2ccc(C=C3SC(=S)N(Cc4ccccc4)C3=O)o2)cc1` [Leukadherin-1], which cell viability is on record?
Answer: Its cell viability is 1.06.

Question: `O=C(O)C1=C(CSc2nnnn2CS(=O)(=O)O)CS[C@@H]2[C@H](NC(=O)[C@H](O)c3ccccc3)C(=O)N12` [Cefonicid sodium] was tested. Which cell viability did it give?
Answer: Its cell viability is 1.1.

Question: Which cell viability does the source give for `CCc1cc2c(cc1CC)CC(NC[C@H](O)c1ccc(O)c3[nH]c(=O)ccc13)C2` [Indacaterol maleate] here?
Answer: Its cell viability is 0.963.

Question: `CCc1cc2c(cc1CC)CC(NC[C@H](O)c1ccc(O)c3[nH]c(=O)ccc13)C2` [Indacaterol] was tested. Which cell viability did it give?
Answer: The cell viability was 1.07.

Question: `Cc1c(-c2ccc(O)cc2)n(Cc2ccc(OCCN3CCCCCC3)cc2)c2ccc(O)cc12` [Bazedoxifene acetate] was tested. Which cell viability did it give?
Answer: Its cell viability is 1.24.

Question: With `O=C(O)c1cccc(-c2noc(-c3ccccc3F)n2)c1` [Ataluren] as the compound, how does the cell viability read?
Answer: The cell viability was 1.06.

Question: `Nc1ccc(S(=O)(=O)Nc2nccs2)cc1` [Sulfathiazole] was tested. Which cell viability did it give?
Answer: Its cell viability is 1.04.

Question: Which cell viability does the source give for `Cc1ccc(NC(=O)CCCCCC(=O)Nc2ccccc2N)cc1` [Pimelic diphenylamide 106] here?
Answer: Its cell viability is 0.963.

Question: With `Cc1ccc(-c2cc(C(F)(F)F)nn2-c2ccc(S(N)(=O)=O)cc2)cc1` [Celecoxib] as the compound, how does the cell viability read?
Answer: The cell viability was 1.14.

Question: How did the cell viability turn out when `CC(C)[N+]1(C)[C@@H]2CC[C@H]1C[C@@H](OC(=O)C(CO)c1ccccc1)C2` (some centres undefined) [Ipratropium bromide monohydrate] was run?
Answer: Its cell viability is 1.11.

Question: For `CC(C)[N+]1(C)[C@@H]2CC[C@H]1C[C@@H](OC(=O)C(CO)c1ccccc1)C2` (some centres undefined) [Ipratropium Bromide], which cell viability is on record?
Answer: Its cell viability is 1.12.

Question: For `Cc1cc(O)c(-c2ccc(C(C)CN)cc2)c2c1[nH]c(=O)c1sccc12` (centres undefined), which cell viability is on record?
Answer: The cell viability was 0.116.
